Results published in the RNAGym collection of RNA variant scans (doi:10.1073/pnas.2313332121).
Variants at the background level are over-represented here.

B1: TPR 5TU (parent)
chain: GGAUCUUCUCGAUCUAACAAAAAAGACAAAUCUGCCACAAAGCUUGAGAGCAUCUUCGGAUGCAGAGGCGGCAGCCUUCGGUGGCGCGAUAGCGCCAACGUUCUCAACUAUGACACGCAAAACGCGUGCUCCGUUGAAUGGAGUUUAUCAUG

Variants of: B1
Test: polymerase ribozyme fitness, log enrichment relative to wild type (log ratio); higher = more active; in vitro selection for triplet polymerase activity
Procedure, shortened: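 In triplicate, a single round of in vitro selection was run on each mutant library, PCR-built and transcribed, covering one subunit of a heterodimeric triplet polymerase ribozyme. Frozen incubation at −7 °C followed annealing with a biotinylated primer, partner subunit and triplets, and extended constructs were then gel-excised, streptavidin-captured and taken through RT-PCR. Fitness is the logarithm of genotype enrichment over wild-type enrichment, from inverse-variance-weighted replicate averages of Illumina-sequenced inputs and outputs. […] only genotypes with ≥10 input reads and ≥1 read per output were kept.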

| Variant | polymerase ribozyme fitness (log ratio) |
| --- | --- |
| G67U C76G G143A A150G | ≤ -4.2 |
| G67U C76U G80C C93U C103G | ≤ -4.2 |
| G67U C85G | ≤ -4.2 |
| G67U C85U G86A C103G U109G C118G | ≤ -4.2 |
| G67U C93U | -3.74 |
| G67U U151G | ≤ -4.2 |
| G68A A91C A142C | ≤ -4.2 |
| G68A A106C A120G A138C | ≤ -4.2 |
| G68A A122G G133C | ≤ -4.2 |
| G68A C75A C76U G88A G143U A150C | ≤ -4.2 |
| G68A C85U A97U A107U G128A C132U | ≤ -4.2 |
| G68A C87A A106C G117U | ≤ -4.2 |
| G68A C93A C103U A115U G117A | ≤ -4.2 |
| G68A C93G C129A U130A | ≤ -4.2 |
| G68A C93U A98U G117U | ≤ -4.2 |
| G68A C123U | -3.89 |
| G68A G74C G88A | ≤ -4.2 |
| G68A G81U C96G A107C G124C | ≤ -4.2 |
| G68A G88A U102A A137G | ≤ -4.2 |
| G68A G88U C93A C116G C118A | ≤ -4.2 |
| G68A G88U C93A C116G C118A U148G | ≤ -4.2 |

| Variant | polymerase ribozyme fitness (log ratio) |
| --- | --- |
| G68A G88U C103G C108A C118U U139G | ≤ -4.2 |
| G68A G92C | -4.16 |
| G68A U77A G81A U111A G126U | ≤ -4.2 |
| G68A U77G A113C | ≤ -4.2 |
| G68C A98U C108G A113G | ≤ -4.2 |
| G68C C79A C96U C103U C118G | ≤ -4.2 |
| G68C C103U | ≤ -4.2 |
| G68C C114U U146C | ≤ -4.2 |
| G68C G80U A89U C95U U104G U134A A142G | ≤ -4.2 |
| G68C G84U | ≤ -4.2 |
| G68C G92U G136U U144A | ≤ -4.2 |
| G68C U78C C96A A98G G143A | ≤ -4.2 |
| G68C U78C G84C U146A | ≤ -4.2 |
| G68C U90C C93G C103A A119C G141U U148G | ≤ -4.2 |
| G68C U104G C105G C118U G133C | ≤ -4.2 |
| G68U C69A A113G G117A | ≤ -4.2 |
| G68U C75A G81U G83A C95U C96U C116U | -1.31 |
| G68U C76A C105U U135A | ≤ -4.2 |
| G68U C76G U78G U82G G94U U144C | ≤ -4.2 |
| G68U C85U U144A | -4.15 |
| G68U C103U G141C | ≤ -4.2 |

| Variant | polymerase ribozyme fitness (log ratio) |
| --- | --- |
| G68U C116G U144A U146A U148G | ≤ -4.2 |
| C69A | -1.57 |
| C69A A73C G84U U109C C118A | ≤ -4.2 |
| C69A A73G G92C | -1.54 |
| C69A A91C A122U A142C | ≤ -4.2 |
| C69A C76A U109C | ≤ -4.2 |
| C69A C85U U101G U148G | ≤ -4.2 |
| C69A C108A | ≤ -4.2 |
| C69A C118U | -1.62 |
| C69A G71U C85G C103U G117C | -3.28 |
| C69A G83A A121C | -1.84 |
| C69A G83C | -3.07 |
| C69A G84A C96G U111A | ≤ -4.2 |
| C69A G94C | -0.673 |
| C69A U82G C85U C114G | ≤ -4.2 |
| C69A U104G | -3.09 |
| C69A U139C G140A U148A | ≤ -4.2 |
| C69G | -1.51 |
| C69G A73C U77C G84A C118U C131A U139G | ≤ -4.2 |
| C69G A91U | ≤ -4.2 |
| C69G A106C A137C | ≤ -4.2 |

| Variant | polymerase ribozyme fitness (log ratio) |
| --- | --- |
| C69G C72U | -2.71 |
| C69G C76G C96A A138G | ≤ -4.2 |
| C69G C85U G86A | -3.62 |
| C69G C93A | ≤ -4.2 |
| C69G C96A C105G C108G A113U | ≤ -4.2 |
| C69G G71A U78A U82A U151C | ≤ -4.2 |
| C69G G71C C79A C87G A138U U144C | ≤ -4.2 |
| C69G G133U | ≤ -4.2 |
| C69G U77C C87U G140U | ≤ -4.2 |
| C69U | -1.03 |
| C69U A106C | -2.21 |
| C69U A107C A119G G124A | ≤ -4.2 |
| C69U C75U G92A U102G U111G C123A U148A | ≤ -4.2 |
| C69U C76G | ≤ -4.2 |
| C69U C79U A106C C114U A119C | ≤ -4.2 |
| C69U C93A U102G C103G | ≤ -4.2 |
| C69U G84U A91G A113U | ≤ -4.2 |
| C69U G86C | ≤ -4.2 |
| C69U G86C A89U | ≤ -4.2 |
| G70A A91U C123U A138C C149U | ≤ -4.2 |
